Assay results published in the supplement of paper PMC10338343.
± gives the standard deviation. The full ranking holds about 6,600 sequences; the median of “pre-steady-state target cleavage rate” is about 0.07, and the highest 2% start at about 0.72. This is a selection; strong and weak results do not stand in their true shares.

System: MIWI (PIWIL1) piRISC loaded with Kctd7 piRNA (30 nt)
Experiment: pre-steady-state target cleavage rate (min^-1); MIWI and MILI are mouse PIWI proteins and EfPiwi is from a freshwater sponge; tags in brackets are library labels; higher = faster piRNA-guided slicing of the target
Conditions: guide: Kctd7 piRNA 5'p-UGUUAAUCUCUCAGAGAAGGUGACAGUGAU; auxiliary factor: 500 nM mouse GTSF1
Protocol: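 Cleave-'n-Seq: a library of target RNAs (target site embedded in constant flanks, ACAGCATTCCGCGTTAGTGATATCCG... 5' flank; DNA-blocked outside the site) at 0.1 nM was incubated with 1 nM active mouse MILI or MIWI piRISC (synthetic 5'-monophosphorylated piRNA guide) with or without 500 nM mouse GTSF1 at 33 °C for 1 min to 16 h. Uncleaved targets were sequenced and normalised to non-target controls, and the pooled three trials were fitted to a burst-and-steady-state model to give the pre-steady-state cleavage rate (min^-1; k3 is constrained to at most 1e-4). Sequence is the target site only; target names encode pairing extent (gX:gY) and contiguous / 1-mismatch / 2-mismatch / bulge geometry. Fits with R² ≤ 0 are excluded.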

| Sequence | pre-steady-state target cleavage rate |
| --- | --- |
| UAGACUGUCACCUUCUCACAGAGAUUAACA | 0.0126 ± 0.004 |
| UACACUAUCACCUUCUCUGAGAGAUUAACA | 0.478 ± 0.034 |
| UAGUGAGUCACCAUCUCUGAGAGAUUAAGA | 0.0742 ± 0.019 |
| UUCACUGUCACCUUCUCACUGAGAUUAACA | 0.00774 ± 0.0042 |
| UAGUGACAGAUCUUCUCUGAGAGAUUAACA | 0.0808 ± 0.0058 |
| AUCACUGGUCACCUUCUCUGAGAGAUUAACA | 0.742 ± 0.047 |
| UAGUGAGUCAGCAUCUCUGAGAGAUUAACA | 0.25 ± 0.023 |
| UAGACUGUCACCUUCUCUGAGCAGAUUAACA | 0.00359 ± 0.0018 |
| AUCACUGACACCUUGUCUGAGAGAUUAACA | 0.203 ± 0.029 |
| UAGACUGUAACCUUCUCUGAGAGAUUAACA | 0.599 ± 0.038 |
| UACACUGUCACCUAGACUGAGAGAUUAACA | 0.0292 ± 0.0072 |
| UAGUGAGUCACCUUCUCUGAGUCUUUUUGA | 0.0138 ± 0.0072 |
| UUGACUCUCACCUUCUCUGAGAGAUUAACA | 0.528 ± 0.025 |
| UUCAGUGUCACCUUCUCUGAGAGAUUAACA | 0.578 ± 0.027 |
| UAGUGUGUCACCUUCUCUGAGACUAUAACA | 0.00618 ± 0.0039 |
| UAGACUGUCACCUUGACUGAGAGAUUAAGA | 0.00965 ± 0.0044 |
| UACACUCUGACCUUCUCUGAGAGAUUAACA | 0.29 ± 0.017 |
| UAGUGACUCACCUUCUCUCAGAGUUUAACA | 0.0221 ± 0.0044 |
| UAGUGUGUCACCUUCUGUGAGUGAUUAACA | 0.0182 ± 0.0067 |
| UAGUCUGUGACCUUCUCUGAGAGAUUAAGA | 0.124 ± 0.017 |
| UAGACUGUCACCUUCUCAGAGAGAUUAACA | 0.334 ± 0.023 |
| UAGUGACAGUGGAACUCUGAGACUAAUUGA [g9:g16:cont:t1A] | 0.0143 ± 0.013 |
| UAGUGACACAGCUUCUCUGAGAGAUUAAGA | 0.0573 ± 0.0086 |
| UAGUGUGUCACCUUCAGUGAGAGAUUAACA | 0.101 ± 0.013 |

| Sequence | pre-steady-state target cleavage rate |
| --- | --- |
| UAGACUGUCACCUUCUCUGAGAGAUUUAGA | 0.0419 ± 0.011 |
| UACACUGUCACCUUCUCUGAGAGAUUAGACA | 0.12 ± 0.023 |
| UAGUGAGUCACCUUCUCUGUGUGAUUAACA | 0.00823 ± 0.005 |
| UACACUGUCACCUUCUCUGAGACAUUAACA | 0.119 ± 0.014 |
| UAGUCUGUCAGCUUCUCUGAGAGAUUAAGA | 0.065 ± 0.011 |
| UAGUGUGACACCUUCUCUGAGAGUUUAACA | 0.197 ± 0.043 |
| UACAGACUCACCUUCUCUGAGAGAUAUUGA | 0.018 ± 0.0056 |
| UAGUGACAGUCCUUCUCUGAGAGAUUAACA [g2:g20:cont:t1A] | 0.091 ± 0.011 |
| UAGUGACAGUCCUUCUCUGAGAGAUUAUCA | 0.0245 ± 0.0042 |
| UACACUGUACCUUCUCUGAGAGAUUAACA | 0.597 ± 0.029 |
| UAGUGAGUCACCAUCUCAGAGAGAUUAACA | 0.0923 ± 0.008 |
| UAGUGACACACCUUCUCUGAGAGAUUAGCA | 0.153 ± 0.026 |
| AUCACUGUCACCUUCUCUGAGAGAUUUACA | 0.471 ± 0.059 |
| UAGACUGUCACGAUCUCUGAGAGAUUAACA | 0.601 ± 0.045 |
| UACACUGUGUGCUUCUCUGAGAGAUUAAGA | 0.00596 ± 0.0024 |
| UAGUGUGUCACCUACUCUGACAGAUUAACA | 0.217 ± 0.023 |
| UAGUCAGUCACCUUCUCAGAGAGAUUAACA | 0.496 ± 0.025 |
| UAGACUGUCACCUUGUCUGACAGAUUAACA | 0.268 ± 0.029 |
| UAGUGACACACCUUCUCUGGGAGAUUAACA | 0.288 ± 0.021 |
| UAGUGACAGACCUUUUCUGAGAGAUUAACA | 0.0444 ± 0.0078 |
| AUCACUGUCACCUUCUCUGAGAGAAAUUGA | 0.0816 ± 0.024 |
| AUCACUGUCUCCUUCUCUGAGAGAUUAUCA | 0.261 ± 0.038 |
| AUCACUGUUACCUUCUCUGAGAGAUUAACA | 0.553 ± 0.033 |
| UAGUGACACACGUUCUCUGAGAGAAUAACA | 0.0314 ± 0.0073 |

| Sequence | pre-steady-state target cleavage rate |
| --- | --- |
| UAGUGACAGACCUUCUCUGAGAGAUAAUCA | 0.00999 ± 0.005 |
| UAGUGAGUCACCCUCUCUGAGAGAUUAACA | 0.682 ± 0.038 |
| UAGUGACAGUGGAAGAGACUCAGAUAAACA | < 0.0001 |
| UAGUGACACACCUUGUGUGAGAGAUUAACA | 0.0157 ± 0.0037 |
| AUCACUGUGACCUUCUCUGUGAGAUUAACA | 0.254 ± 0.013 |
| AUCACUGUCACCUUCUCUCUCAGAUUUUGA | 0.00682 ± 0.0034 |
| UAGUGUGUCACCUACUCUGAGAGAUUAUGA | 0.0323 ± 0.011 |
| UAGUGAGUCACCAUCUCUGAGAGAUUUACA | 0.247 ± 0.036 |
| AUCUCAGUCACCUUCUCUGAGAGAUUAACA | 0.35 ± 0.038 |
| UUCACUGUCACCUUCACUCAGAGAUUAACA | 0.0354 ± 0.0063 |
| UACACUGUCACCUUCUCUGAGAAUUAACA | 0.0839 ± 0.025 |
| UACACUCUCACCUACUCUGAGAGAUUAACA | 0.397 ± 0.026 |
| AUCAGACUCACCUUCUCUGAGAGAUUAUGA | 0.0489 ± 0.0098 |
| AUCACUGUCACCUUCUCUAAGAGAUUAACA | 0.482 ± 0.017 |
| UAGUGUGUGAGCUUCUCUGAGAGAUUAACA | 0.251 ± 0.022 |
| UAGUGACAGUCCUUCUGUGAGAGAUUAUCA | 0.0136 ± 0.0044 |
| AUCACAGUCACCUUCUCUGAGAGAUAAACA | 0.418 ± 0.042 |
| UAGUCUGUCACCUUCUCUGAGAUAUUAACA | 0.29 ± 0.027 |
| AUCACUGUCUGCUUCUCUGAGAGAUUAUGA | 0.0483 ± 0.0098 |
| AUCACUGAGUCCUUCUCUGAGAGAUAUUGA | 0.0168 ± 0.0055 |
| UAGUGUAGUCACCUUCUCUGAGAGAUUAACA | 0.678 ± 0.032 |
| UUGAGUGUCACCUUCUCUGAGAGAUUAACA | 0.763 ± 0.034 |
| UAGUGAGUGACCUUCACUGAGAGAUUAACA | 0.347 ± 0.027 |
| UAGACUUUCACCUUCUCUGAGAGAUUAACA | 0.612 ± 0.033 |
